Results as given in PMC4336329 (PLoS ONE, 2015).
Out of some 310,000 compounds screened, about 2,200 (0.71%) showed an effect of 50% or more. The effect is printed as a negative number. The list shows a part of the results. Where a SMILES comes first, the peptide text is derived from it. The star is where a group is joined. Boc = CC(C)(C)OC(=O)*

Target: human ether-à-go-go-related gene (hERG) potassium channel (human, UniProt Q12809)
Assay: primary screen, population patch clamp on CHO cells stably expressing hERG

Chain of human ether-à-go-go-related gene (hERG) potassium channel (Q12809 whole entry, looked up): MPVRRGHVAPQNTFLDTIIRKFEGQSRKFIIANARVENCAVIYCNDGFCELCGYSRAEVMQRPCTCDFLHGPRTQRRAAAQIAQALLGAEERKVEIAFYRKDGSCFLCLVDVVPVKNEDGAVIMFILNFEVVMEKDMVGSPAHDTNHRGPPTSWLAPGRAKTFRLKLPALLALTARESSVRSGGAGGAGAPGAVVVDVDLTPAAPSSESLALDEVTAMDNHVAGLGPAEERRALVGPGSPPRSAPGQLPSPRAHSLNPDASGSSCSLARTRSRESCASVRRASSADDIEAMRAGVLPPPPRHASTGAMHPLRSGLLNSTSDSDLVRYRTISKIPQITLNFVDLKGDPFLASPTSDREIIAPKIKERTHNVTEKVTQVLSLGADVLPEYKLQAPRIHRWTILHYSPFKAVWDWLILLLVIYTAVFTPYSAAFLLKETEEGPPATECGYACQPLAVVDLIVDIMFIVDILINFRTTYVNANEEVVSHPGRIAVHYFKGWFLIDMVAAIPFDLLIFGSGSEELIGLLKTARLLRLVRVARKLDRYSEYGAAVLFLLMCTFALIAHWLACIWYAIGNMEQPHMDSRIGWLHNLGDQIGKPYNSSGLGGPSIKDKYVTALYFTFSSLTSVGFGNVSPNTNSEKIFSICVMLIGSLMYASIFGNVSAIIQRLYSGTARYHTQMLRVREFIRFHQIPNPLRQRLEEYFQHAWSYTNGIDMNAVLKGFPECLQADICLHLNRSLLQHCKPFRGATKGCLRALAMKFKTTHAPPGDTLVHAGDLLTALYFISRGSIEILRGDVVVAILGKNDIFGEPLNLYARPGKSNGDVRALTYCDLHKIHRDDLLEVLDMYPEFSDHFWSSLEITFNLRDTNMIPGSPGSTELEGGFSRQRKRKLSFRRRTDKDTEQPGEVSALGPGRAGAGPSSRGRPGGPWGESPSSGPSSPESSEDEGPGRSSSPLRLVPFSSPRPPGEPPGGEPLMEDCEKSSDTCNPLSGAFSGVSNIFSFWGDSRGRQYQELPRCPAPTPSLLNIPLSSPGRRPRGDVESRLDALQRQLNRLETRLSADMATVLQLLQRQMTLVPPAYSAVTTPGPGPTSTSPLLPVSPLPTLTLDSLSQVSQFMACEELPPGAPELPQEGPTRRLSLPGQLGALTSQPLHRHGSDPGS

| SMILES | hERG current change (%, negative = inhibition) at 1uM |
| --- | --- |
| COc1ccccc1C(C#N)N1N=C(C)CC1(C)C (stereo not drawn) | 13.8% |
| COc1ccccc1C1=NOC(C)(c2nnc(-c3cccc(Cl)c3)o2)C1 (stereo not drawn) | 14% |
| CC1(c2ccc3ccccc3c2)NC(=O)N(CC(=O)O)C1=O (stereo not drawn) | 0.814% |
| Cc1nc(NC(=O)c2ccc(Cl)cc2)sc1Cc1ccc2c(c1)OCO2 | 17.3% |
| Nc1nc(CN2CCN(C(=O)c3ccco3)CC2)nc(Nc2cccc(Cl)c2)n1 | -76.3% |
| CC1CCCN(CCC(=O)Nc2ccc3c(c2)CCC3)C1.Cl (stereo not drawn) | -8.9% |
| c1ccc(-n2c(Cc3cn4ccsc4n3)nnc2N2CCOCC2)cc1 | 10.5% |
| Cc1cc(C)cc(NC(=O)c2cc(S(=O)(=O)N3CCCC3)cn2C)c1 | 7.36% |
| CCC(Cc1ccccc1)NC(=O)CCNS(=O)(=O)c1cc(Br)cnc1N (stereo not drawn) | 5.66% |
| CCN(Cc1ccccc1)C(=O)c1oc2ccc(C)cc2c1C | 11.9% |
| CCOn1c(=O)c(-c2ccccc2)[n+]([O-])c2ccccc21 | 6.02% |
| CCN1C(=O)NC(c2cc(Br)ccc2OC)C(C(=O)OC)=C1C (stereo not drawn) | 5% |
| Cc1ccc(NC(=O)c2scc3c2CCCC3)cc1 | 7.37% |
| COc1ccc(OC)c(NC(=O)c2cc(S(=O)(=O)N3CCCC3)cn2C)c1 | -11.6% |
| COC(=O)c1ccc2c(=O)n(-c3ccc(OC)cc3)c(=S)[nH]c2c1 | 13.6% |
| Cc1cc2oc(=O)cc(Cn3ccnc3)c2cc1C | 1.33% |
| CCCCCCCNC(=O)C1(CC2CC(c3cccc(Br)c3)=NO2)CCN(C(=O)C2(C)CC2)CC1 (stereo not drawn) | 2.51% |
| Cc1ccc(Cl)cc1N1CCN(S(=O)(=O)c2ccc3[nH]c(=O)ccc3c2)CC1 | 8.35% |
| O=C(NC(=O)N1CCCCC1)c1ccccc1 | 8.26% |

| SMILES | hERG current change (%, negative = inhibition) at 1uM |
| --- | --- |
| Cc1cccc(NC(=O)CCOc2ccccc2)c1 | 14.2% |
| FC(F)(F)c1ccccc1-n1c(-c2cnccn2)n[nH]c1=S | 9.65% |
| O=C(COC(=O)COc1ccccc1)NC1CCCC1 | 9.76% |
| Cc1ccc(C(=O)OCN2C(=O)c3ccccc3C2=O)cc1S(=O)(=O)N1CCOCC1 | 14.4% |
| COc1ccc(CC(=O)Nc2ccc(-c3cn4ccc(C)cc4n3)cc2)cc1 | 4.26% |
| O=C(Nc1ccc(S(=O)(=O)N2CCOCC2)cc1)c1cccc([N+](=O)[O-])c1 | 15.5% |
| CNC(=O)COc1ncnc2sc(C)c(C)c12 | -1.68% |
| O=C(CCN1C(=O)/C(=C/c2cccs2)SC1=S)Nc1ccc(C(=O)O)cc1 | 11.8% |
| CCC(c1nnnn1C1CCCC1)N1CCN(c2ccccc2F)CC1 (stereo not drawn) | -2.45% |
| N/C(=N\OC(=O)c1ccc(Cl)c(Cl)c1)c1ccccn1 | 8.65% |
| CC(C)C1Oc2ccccc2N(CC(=O)NC2CCCCC2)C1=O (stereo not drawn) | 7.66% |
| COc1cccc(N=Cc2nc(-c3ccccc3)oc2OC(C)=O)c1 | 3.92% |
| O=C(CSc1nnnn1-c1ccc(O)cc1)c1ccc(F)cc1 | 4.3% |
| Cc1ccc(C(=O)N/C(=C\c2ccccc2F)c2nc(=S)[nH][nH]2)cc1 | 10.1% |
| COc1ccc(S(=O)(=O)N(CCCN2CCOCC2)Cc2cccc3ccccc23)cc1 | 7.17% |
| Cc1ccccc1C(=O)Nc1nnc(-c2ccco2)s1 | 10.1% |
| COc1ccccc1NC(=O)Nc1nc(CC(=O)Nc2ccc(N(C)C)cc2)cs1 | 7.82% |
| CCN1CCN(C(=O)C(C)Nc2ccc(OC)cc2OC)CC1 (stereo not drawn) | 0.55% |
| C[C@@H]1C(=O)O[C@@H]2[C@H](O)C34[C@H]5C[C@@H](C(C)(C)C)C36[C@H](OC(=O)[C@@H]6O)OC4(C(=O)O5)[C@@]12O (stereo partly drawn) | 10.8% |

| SMILES | hERG current change (%, negative = inhibition) at 1uM |
| --- | --- |
| COc1ccc(-n2ncc(C(C)NS(=O)(=O)c3cc(F)ccc3C)c2C)cc1 (stereo not drawn) | -31.6% |
| CC(C)CC(NC(=O)C(NC(=O)OC(C)(C)C)C(C)C)C(N)=O (stereo not drawn) (Boc-Val-Leu-NH2; configuration not given here) | 4% |
| COc1cccc(NC(=O)c2ccc(CN3CCN(c4ccccc4)CC3)cc2)c1 | -23.1% |
| NC(=O)[C@@H]1CCCN1Cc1nc(-c2ccc(C(F)(F)F)cc2)no1 | 8.63% |
| O=C(NCc1ccco1)NC1CCCCC1 | 5.72% |
| CCOc1ccc(N=CNc2ccc(OCC)cc2)cc1 | 13.2% |
| Fc1cccc(CCN2C(=S)NC[C@@H]2CC2CCCCC2)c1 | 8.53% |
| Cc1ccc(C(=O)N(C)CC(=O)Nc2ccc(F)c(F)c2F)o1 | 11.7% |
| O=C(CN(CC1CCCO1)C(=O)CNS(=O)(=O)c1ccc(F)cc1)NCc1ccco1 (stereo not drawn) | 13.5% |
| O=C(Nc1ccc(Br)c(C(F)(F)F)c1)c1ccccc1 | 25.7% |
| CCOc1ccc2nc(NC(=O)NC3CCCCC3)sc2c1 | 6.37% |
| O=C(NCC1CCCO1)c1ccc(Cl)c(S(=O)(=O)N2CCOCC2)c1 (stereo not drawn) | 14.4% |
| O=C1CCC/C(=N/NC(=O)c2ccc(CN3c4cccc5cccc(c45)S3(=O)=O)cc2)C1 | 10.2% |
| CCCC(=O)Nc1ccc(OCC(=O)OC)cc1 | 8.66% |
| COc1ccc(COCC(O)CN2CCc3ccccc3C2)cc1OC.Cl (stereo not drawn) | 4.26% |
| COc1ccc(C)cc1S(=O)(=O)Nc1cccc(Cl)c1 | 17.7% |
| CCCc1cc(=O)n2[nH]c(-c3ccc(C)cc3)cc2n1 | 12.8% |
| Cc1ccc2nc(N(CCCN(C)C)C(=O)c3cc4ccccc4oc3=O)sc2c1.Cl | 3.84% |
| COc1ccccc1C(=O)NC(=O)COC(=O)CCOc1ccccc1C | 6.25% |
